The list shows a part of the results.

First the molecules themselves.
B1: chr11:75572625:75572772:+|3pUTR|ENSG00000149257|msi1|FALSE|unique (ssRNA)
RNA: GGGAGUUCUACAGUCCGACGAUCUCUGGCGUUGUGGGGAUGAACUUUUUGUUUUGUUUCUUCCUUUUUUAGUUCUUCAAAGAUAGGGAGGGAAGGGGGAACAUGAGCCUUUGUUGCUAUCAAUCCAAGAACUUAUUUGUACAUCAACAGAGGAUUGAGCAUCA
B2: chr15:63694043:63694144:-|CDS|ENSG00000103657|unk|FALSE|unique (ssRNA)
RNA: GGGAGUUCUACAGUCCGACGAUCAGGACCUAUGCUGAUAAACUGAGUCCCAAAGUAGUUCAAUCCUUGUUGGAUCUACUCUGUAGUCAGUUGAAGAAUUUAUUGUCCCAAACUGGUGUACUACAUAUGGCCUCUUUCGGAGAACAACAGAGGAUUGAGCAUCA
B3: ENSG00000169908:stop:overlap|stop_codon|ENSG00000169908|stop_codon|NA|stop_codon (ssRNA)
RNA: GGGAGUUCUACAGUCCGACGAUCGAGGCAUAUGUGGCUUUUGCUGCUCUCACCAACAGGUAAGAACCUGCAUGAAAAUGUCGUAGUCUGGCCCUGGUGUUAAUAUACCAUUGUUUUCAUCAUAAAGAAAAAGGCAAAACCAAACAACAGAGGAUUGAGCAUCA
B4: chr2:134980819:134981518:-|CDS|ENSG00000176601|control|control|control (ssRNA)
RNA: GGGAGUUCUACAGUCCGACGAUCUGCUUGCAAGAGAACACUGUGAGCAUUUUCAUGGAGUUUGUUCCUGGUGGCUCAAUCUCUAGUAUUAUAAACCGUUUUGGGCCAUUGCCUGAGAUGGUGUUCUGUAAAUAUACGAAACAACAACAGAGGAUUGAGCAUCA
B5: chr1:91680342:91683857:-|three_prime_utr|ENSG00000069702|control|control|control (ssRNA)
RNA: GGGAGUUCUACAGUCCGACGAUCGUGCUGCCCACAGCAUCGGCAGCACGCAGAGCACGCCUUGCUCCAGCAGCAGCACGGCCUAGCCCAACCCAGCCCAACCCGGCCCAACCCAGCCCAGCCCAGCUCAGCUCAGCUACUGCCCAACAGAGGAUUGAGCAUCA
B6: ENSG00000107863:be:win_1301|CDS|ENSG00000107863|bound_else_gene|NA|bound_elsewhere_windowed (ssRNA)
RNA: GGGAGUUCUACAGUCCGACGAUCCUUUGCAGGGACGACGUCGAAGCACCUCUCAUGAUCGAGUGCCCCAGUCUGUCCAGAUACGGCAACGCAGUGUGUCCCAAGAAAGACUGGAAGAUUCUGUGCUAAUGAAGUAUUGUCCAACAACAGAGGAUUGAGCAUCA
B7: chrX:117909842:117909960:-|CDS|ENSG00000003096|unk|FALSE|unique (ssRNA)
RNA: GGGAGUUCUACAGUCCGACGAUCAGCACAGGGGAGUUCUUGAAACUCCCUUUUGAGCGUCUUGCCUUCGUGCUUUCCAGUAAUAGCCUUAAGCACUGUACUGAACUUGAGCUCUUUAAGGCUACCUGUCGUUGGCUUCGCCUGCAACAGAGGAUUGAGCAUCA
B8: chr3:31657911:31664018:-|three_prime_utr|ENSG00000144645|control|control|control (ssRNA)
RNA: GGGAGUUCUACAGUCCGACGAUCGGGUUUUUCUUGCUGAGCCCCCAAGACUGGAUAAAUACCAGGCAGGGGAAGGGAUGGACUAGGGCAGCUCGGUUCUGACUCCAGCUUUGGACAAGGCUUCAGGACAGGUUUUCUGCCACACAACAGAGGAUUGAGCAUCA
B9: chr22:20819776:20819877:-|CDS|ENSG00000241973|unk|FALSE|unique (ssRNA)
RNA: GGGAGUUCUACAGUCCGACGAUCUGUAACGUUUUCACUUGAUCUUCUAGAAUACCUUUGCAAGUAUGCUAUCCCAUGCCUGAUAGGAAUCUCGCGAGCAUUUGGGCGUUACAGCAACAUGGAAGAGUCUCUCCUCUCAAAGCUCAACAGAGGAUUGAGCAUCA
B10: chr14:100278170:100278208:+|3pUTR|ENSG00000100811|msi1_unk|FALSE|overlapping (ssRNA)
RNA: GGGAGUUCUACAGUCCGACGAUCGCUAUCUUAAUUUUGGUUGUAUUCUUUGAUGUUAACACAUUUUGUAUAAUUGUAUCGUAUAGCUGUAUUGAAUCAUGUAGUAUCAAAUAUUAGAUGUGAUUUAAUAGUGUUAAUCAAUUUCAACAGAGGAUUGAGCAUCA
B11: chr20:13714314:13714426:-|3pUTR|ENSG00000089048|unk|total|mutant (ssRNA)
RNA: GGGAGUUCUACAGUCCGACGAUCUUUUUCCCGCCAUAAAGGAUGGAAGUCAAGAACUUUUUGUUGUUCCGUCAUGUUAAGUACCGUUUAUGAAAUUAACUUGUAAAUAAAAGUGUAAAAUAUUUUCAUUAUUUUGUACCGCACCAACAGAGGAUUGAGCAUCA
B12: chr6:89938216:89938327:-|CDS|ENSG00000112182|unk|FALSE|unique (ssRNA)
RNA: GGGAGUUCUACAGUCCGACGAUCUCUUCCAAGGAACGAUUUCCAGAUGAUGAUUAAAAUGCACAAGCUAACCUCAGAACAGUUAGAGUUUAUUCAUGAUGUCCGACGGCGCAGCAAGAACCGCAUCGCGGCCCAGCGCUGCCGCAACAGAGGAUUGAGCAUCA
B13: chr3:50341111:50341409:-|three_prime_utr|ENSG00000004838|control|control|control (ssRNA)
RNA: GGGAGUUCUACAGUCCGACGAUCCGAUCUCCCUCCUCCUCACCCCAAGUGAAGGCUCGAGACUUCCUGCCCCACCCAGUGGGUAGGCCAAGUGUGUUGCUUCAGCAAACCGGACCAGGAGGGCCAGGGCCGGAUGUGGGGACCCAACAGAGGAUUGAGCAUCA
B14: chr7:77627539:77627665:+|CDS|ENSG00000127947|unk|FALSE|bound_elsewhere (ssRNA)
RNA: GGGAGUUCUACAGUCCGACGAUCAAUAUUUCAACAGCAAGUGCCACAGUUUCUGCUGCCACUAGUACUGAAAGCAUUUCUACUAGGAAAGUAUUGCCAAUGUCCAUUGCUAGACAUAAUAUAGCAGGAACAACACAUUCAGGUCAACAGAGGAUUGAGCAUCA
B15: chr11:75562225:75562326:+|5pUTR|ENSG00000149257|msi1|total|mutant (ssRNA)
RNA: GGGAGUUCUACAGUCCGACGAUCGCAGGAGGGGGUGGGGACUGCCAUAUACCGAUCCCGGGAGCAGGGGAGCGGGCUAAGAGCCGAAUCGUGUCGCGGCUCGAGAGCGAGAGUCACGUCCCGGCGCCCGCCCAGCCCGACCCACAACAGAGGAUUGAGCAUCA
B16: chr2:74529670:74529771:-|5pUTR|ENSG00000115307|unk|FALSE|unique (ssRNA)
RNA: GGGAGUUCUACAGUCCGACGAUCUCUCCGCCGGACGCGAGUUGUGAGACGGCCCAAGGGGCCGCGGGGUAUGCUGGGACCGCUAGCCCUUCCGGCGCGCCUCAGGACUUCGGGUCCCCUCACCCCGGGCGGAUGCCCAAAGACCAACAGAGGAUUGAGCAUCA
B17: chr17:44319658:44319728:-|3pUTR|ENSG00000013306|msi1_unk|FALSE|overlapping (ssRNA)
RNA: GGGAGUUCUACAGUCCGACGAUCUCCCUGUGUUUGCUGUAGCUGGGCAUGUCUCCAGGAACCAAGAAGCCCUCAGCCUGGUGUAGUCUCCCUGACCCUUGUUAAUUCCUUAAGUCUAAAGAUGAUGAACUUCUGCCUGGUGCCCAACAGAGGAUUGAGCAUCA
B18: chr7:73478007:73478118:-|CDS|ENSG00000009954|unk|FALSE|unique (ssRNA)
RNA: GGGAGUUCUACAGUCCGACGAUCAAAGGCACGCAGAAGAUGACACGAGCCCCACGGAAUUCUGGGGGUACACCUAGGACCUCUAGUAAACCUCAUAAACAUCUGCCUCCUGCAGCCCUACACCUCAUUGCAUACUACAAAGAACAACAGAGGAUUGAGCAUCA
B19: ENSG00000124766:be:win_1201|CDS|ENSG00000124766|bound_else_gene|NA|bound_elsewhere_windowed (ssRNA)
RNA: GGGAGUUCUACAGUCCGACGAUCUUCGAAGACGACCUGCUCGACCUGAACCCCAGCUCAAACUUUGAGAGCAUGUCCCUGGGCAGCUUCAGUUCGUCGUCGGCGCUCGACCGGGACCUGGAUUUUAACUUCGAGCCCGGCUCCCAACAGAGGAUUGAGCAUCA
B20: chr6:43013266:43013367:-|CDS|ENSG00000124733|msi1|FALSE|bound_elsewhere (ssRNA)
RNA: GGGAGUUCUACAGUCCGACGAUCAUCCCUGUCCUACCGCCUCCCUGUUCUUGCAGCCCCUGCCCGGAUGGCAACAGUAGUUCUAGGAGGAGACACCAUGGGCCCUGAGCGUAUCUUCCCCAAUCAGACUGAGGAACUGGGACACAACAGAGGAUUGAGCAUCA
B21: chr5:138349049:138349150:+|3pUTR|ENSG00000120709|msi1|total|mutant (ssRNA)
RNA: GGGAGUUCUACAGUCCGACGAUCGAGAAGGUCUACAGUUAUCAUUAUUUUAAUUCCAUUACUUUCAGUCUGGAAAACUAAGCCCGUCAGAACUGUCAUCUUGCUUCCCAAUCUAAGAACCUGUGGCCCUGGAACACUUUUCAACAACAGAGGAUUGAGCAUCA
B22: chr10:89774496:89774597:+|3pUTR|ENSG00000138182|msi1|total|mutant (ssRNA)
RNA: GGGAGUUCUACAGUCCGACGAUCAAGAUCUCAAGUCUUUAAUCCGAAUGUCUCACUUAUUUUGUAAACAUUUUGUGGGUACACCGUACAUGUAUAUAUUUACGGGGUAUGUGAGAUGUUUUGACACAGGCAUGCAAUGUGAAACAACAGAGGAUUGAGCAUCA

The target of this test is MSI1 full-length (mouse, UniProt Q61474 1-362). In words: nsRBNS (natural sequence RNA bind-n-seq); RBNS binding buffer (assumed for nsRBNS): 25 mM Tris pH 7.5, 150 mM KCl, 3 mM MgCl2, 0.01% Triton X-100, 500 ug/ml BSA, 20 U/ml SUPERase-In, 4 C; UNK is unkempt and MSI1 is Musashi-1; names of the RNAs are library labels; protein concentration not given here; high values mean tight binding.
UniProt Q61474, sequence (Q61474 whole entry): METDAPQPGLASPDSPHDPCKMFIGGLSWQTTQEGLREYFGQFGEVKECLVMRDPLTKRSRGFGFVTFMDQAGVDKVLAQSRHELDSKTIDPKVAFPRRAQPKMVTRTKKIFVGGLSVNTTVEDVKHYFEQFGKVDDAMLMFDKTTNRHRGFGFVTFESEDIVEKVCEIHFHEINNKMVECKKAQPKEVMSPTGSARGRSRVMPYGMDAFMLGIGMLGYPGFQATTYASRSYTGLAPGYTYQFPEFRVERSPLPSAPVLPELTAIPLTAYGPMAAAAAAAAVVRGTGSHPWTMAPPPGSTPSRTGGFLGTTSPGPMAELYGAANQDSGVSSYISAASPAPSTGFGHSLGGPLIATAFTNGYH
B1 showed a binding signal of 0.518 enrichment R. Molecule B2 registered a binding signal of 0.197 enrichment R. Next, B3: 0.307 enrichment R; B4: 0.338 enrichment R. Next, B5: 0.618 enrichment R; B6: 0.274 enrichment R. For B7, the binding signal turned out to be 0.308 enrichment R. In turn, B8 yielded a binding signal of 0.515 enrichment R.

For the molecule B9, the binding signal came to 0.264 enrichment R. Consider B10, for which the binding signal came to 16 enrichment R. With B11 the figure was 0.796 enrichment R; with B12, 0.413 enrichment R; with B13, 0.426 enrichment R. Next, B14: 0.303 enrichment R. Next, B15: 0.505 enrichment R; B16: 0.342 enrichment R. In turn, B17 had a binding signal of 1.4 enrichment R. With B18 the figure was 0.46 enrichment R; with B19, 0.417 enrichment R; with B20, 0.76 enrichment R.

Turning to B21, the binding signal is 0.418 enrichment R. Next, B22: 0.231 enrichment R.

These data come from article PMC12136788.
